Among the data in the antibiotic and cytotoxicity screens of Wong et al. (2023) are cytotoxicity call values, retold here.

The other results are listed elsewhere or left out.

The assay has as its system HSkMC (human skeletal muscle cells). As to the kind of experiment: cytotoxicity call (relative viability < 0.9). Particulars: 10 µM.
As for `C[C@@H]1CN([C@@H](C)CO)C(=O)c2cc(NC(=O)C3CC3)ccc2O[C@@H]1CN(C)S(=O)(=O)c1ccc(F)cc1`, the cytotoxicity call was “inactive”.

On to `O=C(C[C@H]1C=C[C@@H](NS(=O)(=O)c2ccccc2)[C@@H](CO)O1)NCc1ccncn1`, for which the cytotoxicity call is “inactive”.

Take `Cc1noc(C)c1NC(=O)N(C)C[C@H]1OCCCC[C@@H](C)Oc2ccc(NC(=O)Nc3ccccc3)cc2C(=O)N([C@H](C)CO)C[C@@H]1C`: the cytotoxicity call is “inactive”.

With `C[C@@H]1CN([C@H](C)CO)C(=O)Cc2cc(NC(=O)Cn3cnnn3)ccc2O[C@@H]1CN(C)Cc1ccc(C(F)(F)F)cc1`, the cytotoxicity call was “inactive”.

As for `C[C@H](CO)N1C[C@H](C)[C@H](CN(C)S(C)(=O)=O)Oc2ccc(NC(=O)C3CCCCC3)cc2CC1=O`, the cytotoxicity call was “inactive”.

For the compound `COc1ccc(NC(=O)N(C)C[C@@H]2Oc3ccc(NS(C)(=O)=O)cc3C(=O)N([C@@H](C)CO)C[C@@H]2C)cc1`, the cytotoxicity call was “inactive”.

For the compound `CCCNC(=O)N(C)C[C@@H]1Oc2cc(C#Cc3ccccn3)ccc2S(=O)(=O)N([C@@H](C)CO)C[C@@H]1C`, the cytotoxicity call was “inactive”.

`C[C@H]1CN([C@@H](C)CO)C(=O)c2cccc(NC(=O)NC3CCCCC3)c2O[C@H]1CN(C)Cc1ccc(Oc2ccccc2)cc1`: the cytotoxicity call was “inactive”.

In the case of `Cc1ccc(S(=O)(=O)N(C)C[C@@H]2OCCCC[C@H](C)Oc3ccc(NC(=O)c4ccccc4)cc3C(=O)N([C@@H](C)CO)C[C@H]2C)cc1`, the cytotoxicity call was “inactive”.

In the case of `C[C@@H]1CN([C@H](C)CO)C(=O)c2cc(NS(=O)(=O)c3ccccc3)ccc2O[C@@H](C)CCCCO[C@H]1CN(C)C(=O)Nc1ccc(C(F)(F)F)cc1`, the cytotoxicity call was “inactive”.

As for `CO[C@@H]1CN(C)C(=O)c2ccc(NC(=O)c3ccccc3)cc2OC[C@@H](C)N(C(=O)CN(C)C)C[C@@H]1C`, the cytotoxicity call is “inactive”.
